This is an account of results in paper PMC9911399, “Two distinct binding modes provide the RNA-binding protein RbFox with extraordinary sequence specificity”.

Sequences and labels used below:
T1: RBFOX1 RRM (Homo sapiens, UniProt Q9NWB1 109-208)
T1 sequence: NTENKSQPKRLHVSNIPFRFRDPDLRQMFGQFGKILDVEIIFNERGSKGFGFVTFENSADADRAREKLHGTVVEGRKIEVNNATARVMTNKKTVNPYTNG

B1: UGCGUCA (DNA:RNA)
RNA: GGGAGACCGGAAUUCAGAUUGUCCUGCGUCAUUAAAUCCCGUCGUAGCCACCA
DNA 1: CAATCTGAATTCCGGTCTCCC
DNA 2: TGGTGGCTACGACGGGATT
B2: GAAGGCA (DNA:RNA)
RNA: B1 RNA with U25G, G26A, C27A, U29G
DNA 1: CAATCTGAATTCCGGTCTCCC
DNA 2: TGGTGGCTACGACGGGATT
B3: UUUCUGG (DNA:RNA)
RNA: B1 RNA with G26U, C27U, G28C, C30G, A31G
DNA 1: CAATCTGAATTCCGGTCTCCC
DNA 2: TGGTGGCTACGACGGGATT
B4: AGUCGAG (DNA:RNA)
RNA: B1 RNA with U25A, C27U, G28C, U29G, C30A, A31G
DNA 1: CAATCTGAATTCCGGTCTCCC
DNA 2: TGGTGGCTACGACGGGATT
B5: GGUGAUC (DNA:RNA)
RNA: B1 RNA with U25G, C27U, U29A, C30U, A31C
DNA 1: CAATCTGAATTCCGGTCTCCC
DNA 2: TGGTGGCTACGACGGGATT
B6: GGAUCGA (DNA:RNA)
RNA: B1 RNA with U25G, C27A, G28U, U29C, C30G
DNA 1: CAATCTGAATTCCGGTCTCCC
DNA 2: TGGTGGCTACGACGGGATT
B7: UCUAGGA (DNA:RNA)
RNA: B1 RNA with G26C, C27U, G28A, U29G, C30G
DNA 1: CAATCTGAATTCCGGTCTCCC
DNA 2: TGGTGGCTACGACGGGATT
B8: AGUCACG (DNA:RNA)
RNA: B1 RNA with U25A, C27U, G28C, U29A, A31G
DNA 1: CAATCTGAATTCCGGTCTCCC
DNA 2: TGGTGGCTACGACGGGATT
B9: CGUGACA (DNA:RNA)
RNA: B1 RNA with U25C, C27U, U29A
DNA 1: CAATCTGAATTCCGGTCTCCC
DNA 2: TGGTGGCTACGACGGGATT
B10: UACAGCC (DNA:RNA)
RNA: B1 RNA with G26A, G28A, U29G, A31C
DNA 1: CAATCTGAATTCCGGTCTCCC
DNA 2: TGGTGGCTACGACGGGATT
B11: GUGUACU (DNA:RNA)
RNA: B1 RNA with U25G, G26U, C27G, G28U, U29A, A31U
DNA 1: CAATCTGAATTCCGGTCTCCC
DNA 2: TGGTGGCTACGACGGGATT
B12: UCACCGA (DNA:RNA)
RNA: B1 RNA with G26C, C27A, G28C, U29C, C30G
DNA 1: CAATCTGAATTCCGGTCTCCC
DNA 2: TGGTGGCTACGACGGGATT
B13: AUUUACA (DNA:RNA)
RNA: B1 RNA with U25A, G26U, C27U, G28U, U29A
DNA 1: CAATCTGAATTCCGGTCTCCC
DNA 2: TGGTGGCTACGACGGGATT
B14: AAUGGGA (DNA:RNA)
RNA: B1 RNA with U25A, G26A, C27U, U29G, C30G
DNA 1: CAATCTGAATTCCGGTCTCCC
DNA 2: TGGTGGCTACGACGGGATT
B15: UGUCGCC (DNA:RNA)
RNA: B1 RNA with C27U, G28C, U29G, A31C
DNA 1: CAATCTGAATTCCGGTCTCCC
DNA 2: TGGTGGCTACGACGGGATT
B16: UGCGAUG (DNA:RNA)
RNA: B1 RNA with U29A, C30U, A31G
DNA 1: CAATCTGAATTCCGGTCTCCC
DNA 2: TGGTGGCTACGACGGGATT
B17: UUAUUUU (DNA:RNA)
RNA: B1 RNA with G26U, C27A, G28U, C30U, A31U
DNA 1: CAATCTGAATTCCGGTCTCCC
DNA 2: TGGTGGCTACGACGGGATT
B18: AGAAAGA (DNA:RNA)
RNA: B1 RNA with U25A, C27A, G28A, U29A, C30G
DNA 1: CAATCTGAATTCCGGTCTCCC
DNA 2: TGGTGGCTACGACGGGATT
B19: GGUGACU (DNA:RNA)
RNA: B1 RNA with U25G, C27U, U29A, A31U
DNA 1: CAATCTGAATTCCGGTCTCCC
DNA 2: TGGTGGCTACGACGGGATT
B20: GAUCUAA (DNA:RNA)
RNA: B1 RNA with U25G, G26A, C27U, G28C, C30A
DNA 1: CAATCTGAATTCCGGTCTCCC
DNA 2: TGGTGGCTACGACGGGATT

Substitutions are numbered along the chain they refer to; changes in the protein carry UniProt numbers. Some of the results follow.

The target in this test is T1, RBFOX1 RRM. Nature of the test: EMSA; HiTS-Eq, 1 nM pool, 10 min; buffer printed only for the single-RNA assays: 10 mM Tris pH 7.5, 150 mM NaCl, 3.4 mM EDTA, 0.001% NP-40, 30 C. As to conditions: tags: His6 N-terminal (pET28a); label: 5' 32P. The procedure, abridged: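 Purified RbFox RRM (wild type or mutant) was equilibrated for 10 min in 50 µL with 1 nM of a 5′-radiolabelled pool of RNA with 7 randomized nucleotides, its flanks annealed to DNA oligonucleotides, across increasing protein concentrations. Free RNA was separated by 8% native PAGE, excised, reverse-transcribed, PCR-barcoded and sequenced on an Illumina HiSeq 2500. Relative association constants came from read-count changes of each variant against the control reaction, normalised to the cognate motif.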
On to B1, for which the binding signal was 0.00986 KA relative to UGCAUGU.
As for B2, the figure is 0.0178 KA relative to UGCAUGU.
B3: the binding signal is 0.0202 KA relative to UGCAUGU.
As for B4, the binding signal is 0.0129 KA relative to UGCAUGU.
In the case of B5, the binding signal was 0.00751 KA relative to UGCAUGU.
As for B6, the figure is 0.0242 KA relative to UGCAUGU; as for B7, 0.00501 KA relative to UGCAUGU.
Next, B8: 0.00913 KA relative to UGCAUGU; B9: 0.00489 KA relative to UGCAUGU; B10: 0.00315 KA relative to UGCAUGU.
As for B11, the figure is 0.00866 KA relative to UGCAUGU; as for B12, 0.0066 KA relative to UGCAUGU; as for B13, 0.00199 KA relative to UGCAUGU.
Turning to B14, the binding signal was 0.00526 KA relative to UGCAUGU.
As for B15, the binding signal is 0.0149 KA relative to UGCAUGU.
Regarding B16, the binding signal was 0.0369 KA relative to UGCAUGU.
Next, B17: 0.00884 KA relative to UGCAUGU; B18: 0.00545 KA relative to UGCAUGU.
In the case of B19, the binding signal is 0.0137 KA relative to UGCAUGU.
On to B20, for which the binding signal is 0.00941 KA relative to UGCAUGU.
